This note sets out measurements from publication PMC12820563.

This is one part of the list. The list includes weakly bound sequences.

The assay has as its target T1, MBP-FoxP3dN (UniProt Q99JB6).
T1 sequence: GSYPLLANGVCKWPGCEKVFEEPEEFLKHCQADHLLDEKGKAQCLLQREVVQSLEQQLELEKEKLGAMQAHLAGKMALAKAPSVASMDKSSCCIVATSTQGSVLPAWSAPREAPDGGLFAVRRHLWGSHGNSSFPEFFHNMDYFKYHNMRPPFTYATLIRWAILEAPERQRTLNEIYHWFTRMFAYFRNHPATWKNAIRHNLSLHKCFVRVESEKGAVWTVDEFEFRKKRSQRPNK
In words: PD-seq (MBP pull-down with sequencing). The conditions noted are these: 20 mM Tris-HCl pH 7.5, 100 mM NaCl, 1.5 mM MgCl2, 0.4 uM protein, 0.1 uM dsDNA library, 30 min, room temperature, amylose pull-down; high values mean tight binding; double strand, one strand shown.
Turning to “GATGATTGTTCTCCCAGCTGATGAATTTAAGTGGTCGAGTAAACAAATTTTCCTAATCTTTCTGTTCAAGCGCCATCTAC”, the binding signal (RPM ratio (pull-down/input)) was determined as 0.568. Regarding “GATGATTGTTCTCCCAGCTGATGAATTGTGCCAATCGAGTAAACAAATTTTCCTAATCTTTCTGTTCAAGCGCCATCTAC”, the binding signal (RPM ratio (pull-down/input)) is 1.1.

On to “GATGATTGTTCTCCCAGCTGATGAATTAATGTGGTCGAGTAAACAAATTTTCCTAATCTTTCTGTTCAAGCGCCATCTAC”, for which the binding signal (RPM ratio (pull-down/input)) amounted to 0.979. In the case of “GATGATTGTTCTCCCAGCTGATGAATTAAGATAATCGAGTAAACAAATTTTCCTAATCTTTCTGTTCAAGCGCCATCTAC” it was 0.331; in that of “GATGATTGTTCTCCCAGCTGATGAATTAGGTTCCTCGAGTAAACAAATTTTCCTAATCTTTCTGTTCAAGCGCCATCTAC”, 0.873; in that of “GATGATTGTTCTCCCAGCTGATGAATTAAAACTGTCGAGTAAACAAATTTTCCTAATCTTTCTGTTCAAGCGCCATCTAC”, 0.282. Take “GATGATTGTTCTCCCAGCTGATGAATTAATTCCATCGAGTAAACAAATTTTCCTAATCTTTCTGTTCAAGCGCCATCTAC”: the binding signal (RPM ratio (pull-down/input)) worked out at 0.338.

With “GATGATTGTTCTCCCAGCTGATGAATTTAGCGTCTCGAGTAAACAAATTTTCCTAATCTTTCTGTTCAAGCGCCATCTAC”, the binding signal (RPM ratio (pull-down/input)) is 4.15.

Turning to “GATGATTGTTCTCCCAGCTGATGAATTGCTCCCATCGAGTAAACAAATTTTCCTAATCTTTCTGTTCAAGCGCCATCTAC”, the binding signal (RPM ratio (pull-down/input)) was 0.54.

Regarding “GATGATTGTTCTCCCAGCTGATGAATTTGAGGATTCGAGTAAACAAATTTTCCTAATCTTTCTGTTCAAGCGCCATCTAC”, the binding signal (RPM ratio (pull-down/input)) was determined as 0.39. The value for “GATGATTGTTCTCCCAGCTGATGAATTAGCGTCATCGAGTAAACAAATTTTCCTAATCTTTCTGTTCAAGCGCCATCTAC” was 1.35; that for “GATGATTGTTCTCCCAGCTGATGAATTACCAAAATCGAGTAAACAAATTTTCCTAATCTTTCTGTTCAAGCGCCATCTAC” was 0.282.

Consider “GATGATTGTTCTCCCAGCTGATGAATTTTTTAGTTCGAGTAAACAAATTTTCCTAATCTTTCTGTTCAAGCGCCATCTAC”, for which the binding signal (RPM ratio (pull-down/input)) was 0.299. Consider “GATGATTGTTCTCCCAGCTGATGAATTACCGTATTCGAGTAAACAAATTTTCCTAATCTTTCTGTTCAAGCGCCATCTAC”, for which the binding signal (RPM ratio (pull-down/input)) was found to be 1.12.

As to “GATGATTGTTCTCCCAGCTGATGAATTTGTACATTCGAGTAAACAAATTTTCCTAATCTTTCTGTTCAAGCGCCATCTAC”, the binding signal (RPM ratio (pull-down/input)) was determined as 2.32. On to “GATGATTGTTCTCCCAGCTGATGAATTTATTGAATCGAGTAAACAAATTTTCCTAATCTTTCTGTTCAAGCGCCATCTAC”, for which the binding signal (RPM ratio (pull-down/input)) is 0.822. Consider “GATGATTGTTCTCCCAGCTGATGAATTCAACGTTTCGAGTAAACAAATTTTCCTAATCTTTCTGTTCAAGCGCCATCTAC”, for which the binding signal (RPM ratio (pull-down/input)) was 0.532.

On to “GATGATTGTTCTCCCAGCTGATGAATTGGATTCCTCGAGTAAACAAATTTTCCTAATCTTTCTGTTCAAGCGCCATCTAC”, for which the binding signal (RPM ratio (pull-down/input)) was determined as 0.504. The value for “GATGATTGTTCTCCCAGCTGATGAATTTTCAGTTTCGAGTAAACAAATTTTCCTAATCTTTCTGTTCAAGCGCCATCTAC” was 0.271; that for “GATGATTGTTCTCCCAGCTGATGAATTCCGATATTCGAGTAAACAAATTTTCCTAATCTTTCTGTTCAAGCGCCATCTAC” was 1.03. The value for “GATGATTGTTCTCCCAGCTGATGAATTTTAGCAATCGAGTAAACAAATTTTCCTAATCTTTCTGTTCAAGCGCCATCTAC” was 2.86. “GATGATTGTTCTCCCAGCTGATGAATTGGTCCCTTCGAGTAAACAAATTTTCCTAATCTTTCTGTTCAAGCGCCATCTAC”: the binding signal (RPM ratio (pull-down/input)) was 0.426. As to “GATGATTGTTCTCCCAGCTGATGAATTTGCGCACTCGAGTAAACAAATTTTCCTAATCTTTCTGTTCAAGCGCCATCTAC”, the binding signal (RPM ratio (pull-down/input)) is 0.87. “GATGATTGTTCTCCCAGCTGATGAATTCATGCTCTCGAGTAAACAAATTTTCCTAATCTTTCTGTTCAAGCGCCATCTAC”: the binding signal (RPM ratio (pull-down/input)) amounted to 0.667.

Regarding “GATGATTGTTCTCCCAGCTGATGAATTAGCGCTCTCGAGTAAACAAATTTTCCTAATCTTTCTGTTCAAGCGCCATCTAC”, the binding signal (RPM ratio (pull-down/input)) is 0.516. “GATGATTGTTCTCCCAGCTGATGAATTTGACCAGTCGAGTAAACAAATTTTCCTAATCTTTCTGTTCAAGCGCCATCTAC”: the binding signal (RPM ratio (pull-down/input)) stood at 0.226.

“GATGATTGTTCTCCCAGCTGATGAATTACAATGGTCGAGTAAACAAATTTTCCTAATCTTTCTGTTCAAGCGCCATCTAC”: the binding signal (RPM ratio (pull-down/input)) came out at 0.574. On to “GATGATTGTTCTCCCAGCTGATGAATTTGCTATGTCGAGTAAACAAATTTTCCTAATCTTTCTGTTCAAGCGCCATCTAC”, for which the binding signal (RPM ratio (pull-down/input)) was determined as 4.82.

For “GATGATTGTTCTCCCAGCTGATGAATTTCGAGAATCGAGTAAACAAATTTTCCTAATCTTTCTGTTCAAGCGCCATCTAC”, the binding signal (RPM ratio (pull-down/input)) was determined as 0.202. Regarding “GATGATTGTTCTCCCAGCTGATGAATTGCGAGTATCGAGTAAACAAATTTTCCTAATCTTTCTGTTCAAGCGCCATCTAC”, the binding signal (RPM ratio (pull-down/input)) turned out to be 1.17. For “GATGATTGTTCTCCCAGCTGATGAATTTTAGAACTCGAGTAAACAAATTTTCCTAATCTTTCTGTTCAAGCGCCATCTAC”, the binding signal (RPM ratio (pull-down/input)) was 0.193. Regarding “GATGATTGTTCTCCCAGCTGATGAATTGGAATCTTCGAGTAAACAAATTTTCCTAATCTTTCTGTTCAAGCGCCATCTAC”, the binding signal (RPM ratio (pull-down/input)) came to 0.426.
